# Laboratory results from the BET-seq Pho4 binding data (Le et al. 2018).
# Some of the results follow. These are noisy estimates, calculated here from bound and input reads.
# Molecular target: T1, Pho4 (S. cerevisiae) (UniProt P07270)
# T1 sequence: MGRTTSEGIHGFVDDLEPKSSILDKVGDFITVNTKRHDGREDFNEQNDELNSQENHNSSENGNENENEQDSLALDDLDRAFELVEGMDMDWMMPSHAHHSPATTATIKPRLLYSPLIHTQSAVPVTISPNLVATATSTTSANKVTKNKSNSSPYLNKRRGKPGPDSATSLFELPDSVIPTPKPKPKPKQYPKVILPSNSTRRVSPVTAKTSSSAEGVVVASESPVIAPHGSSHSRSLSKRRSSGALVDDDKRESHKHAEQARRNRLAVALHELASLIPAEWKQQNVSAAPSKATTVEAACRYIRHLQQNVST
# Assay: relative binding free energy (BET-seq); higher = weaker binding
# Conditions: reference: library average
row,Sequence,relative binding free energy
1,CGCGACACGTGAGGGT,0.25 kcal/mol
2,TCTGTCACGTGTCATT,0.09 kcal/mol
3,GTTGCCACGTGATTTA,0.19 kcal/mol
4,GTGAACACGTGCTGGT,0.02 kcal/mol
5,AGTCTCACGTGTGTCT,0.22 kcal/mol
6,TAGTACACGTGGGCTT,-0.07 kcal/mol
7,ATTATCACGTGACGTT,0.22 kcal/mol
8,GTGTACACGTGAGGAG,0.24 kcal/mol
9,TTACTCACGTGAGGGT,0.31 kcal/mol
10,ATTAACACGTGGAGTT,0.06 kcal/mol
11,TGTATCACGTGTCCGG,0.14 kcal/mol
12,TGAAACACGTGGTAAG,0.08 kcal/mol
13,TAGAACACGTGGTTGT,-0.13 kcal/mol
14,TTGGACACGTGGCTGT,0.03 kcal/mol
15,GAAAGCACGTGTGGCG,0.16 kcal/mol
16,TGCGGCACGTGGGTCT,-0.31 kcal/mol
17,TGGTGCACGTGAGGGA,0.17 kcal/mol
18,ATGGACACGTGTTATT,0.1 kcal/mol
19,TTGTTCACGTGGGTGC,0.14 kcal/mol
20,ATAGACACGTGTGTAA,-0.02 kcal/mol
21,GTCTTCACGTGTATAT,0.22 kcal/mol
22,ACGGTCACGTGTGTAG,-0.02 kcal/mol
23,ATGGGCACGTGTTGGC,-0.13 kcal/mol
24,TTAAACACGTGTGGGG,0.12 kcal/mol
25,TACGGCACGTGAGTAG,0.14 kcal/mol

row,Sequence,relative binding free energy
1,TAGTTCACGTGCAGTG,0.19 kcal/mol
2,GAAGGCACGTGGATGG,-0.12 kcal/mol
3,TTATACACGTGGAGAT,-0.08 kcal/mol
4,ACGGTCACGTGTGGTT,0.1 kcal/mol
5,TGCTACACGTGGAGGA,0.15 kcal/mol
6,CAGTTCACGTGGTTGA,0.1 kcal/mol
7,TTTTACACGTGCTGGG,0.11 kcal/mol
8,ATAGACACGTGGGATT,-0.06 kcal/mol
9,GCGTGCACGTGTCGGA,0.12 kcal/mol
10,GTTAGCACGTGGACGG,-0.02 kcal/mol
11,TCTAACACGTGTTTGG,0.05 kcal/mol
12,TCGGTCACGTGGATTA,0.01 kcal/mol
13,ATTTGCACGTGCAGGT,-0.05 kcal/mol
14,TGTTTCACGTGTTTAG,0.35 kcal/mol
15,TTAGGCACGTGAGGTC,0.21 kcal/mol
16,GTTGTCACGTGGAATG,0.11 kcal/mol
17,CCTGTCACGTGTTGGG,0.08 kcal/mol
18,TGGTCCACGTGGATTG,0.09 kcal/mol
19,ATATTCACGTGGTAAG,0.24 kcal/mol
20,TGTTTCACGTGGGTTA,0.24 kcal/mol
21,TTAGTCACGTGACGTT,0.02 kcal/mol
22,GGATGCACGTGGCAGT,-0.02 kcal/mol
23,GGTTTCACGTGCTTTG,0.2 kcal/mol
24,TTTTGCACGTGGTGGT,0 kcal/mol
25,CGAGACACGTGGAGGG,0.05 kcal/mol

row,Sequence,relative binding free energy
1,TGCATCACGTGGTCGT,-0.05 kcal/mol
2,TTATGCACGTGGCGGA,-0.11 kcal/mol
3,GGAGACACGTGTTGGT,0.06 kcal/mol
4,ATATACACGTGATTAT,0.03 kcal/mol
5,TTAGTCACGTGTGAAT,0.29 kcal/mol
6,AGTGCCACGTGGTTCT,-0.07 kcal/mol
7,TAGTGCACGTGGTAGT,-0.11 kcal/mol
8,GTGGTCACGTGCAGCT,0.07 kcal/mol
9,TGCTTCACGTGTTGAG,0.23 kcal/mol
10,GGATTCACGTGGGCAA,0.24 kcal/mol
11,TGTAGCACGTGGAGTC,0.11 kcal/mol
12,GGTTGCACGTGTGTTT,0.11 kcal/mol
13,AACTGCACGTGCTGGT,0.11 kcal/mol
14,TGTGGCACGTGGACTT,-0.18 kcal/mol
15,TAGGCCACGTGGCGGT,-0.09 kcal/mol
16,TTCGGCACGTGGGGTT,-0.13 kcal/mol
17,AGTTTCACGTGATACG,0.13 kcal/mol
18,CTGGGCACGTGGTTAT,-0.26 kcal/mol
19,ATGCTCACGTGGTTCG,0.23 kcal/mol
20,TCACGCACGTGGGGTT,-0.24 kcal/mol
21,CGTTTCACGTGTGTGT,0.24 kcal/mol
22,TCAATCACGTGATGTG,0.28 kcal/mol
23,GGGTACACGTGAATGG,0.38 kcal/mol
24,GGGGGCACGTGATTGT,0.1 kcal/mol
25,TGGTCCACGTGGTAAG,0.1 kcal/mol

row,Sequence,relative binding free energy
1,CGCGGCACGTGGTAGG,-0.14 kcal/mol
2,GTTTCCACGTGTGGTC,0.15 kcal/mol
3,TGGTTCACGTGATGCA,0.13 kcal/mol
4,TGAGCCACGTGATTGG,0.16 kcal/mol
5,GAATGCACGTGGCTTG,-0.12 kcal/mol
6,AGGGTCACGTGGGCGC,0.02 kcal/mol
7,GTATGCACGTGGGGTG,-0.08 kcal/mol
8,CTGGACACGTGGGTAT,-0.16 kcal/mol
9,AGGATCACGTGCTGTG,0.23 kcal/mol
10,AGAGTCACGTGCTAGG,-0.01 kcal/mol
11,TGAATCACGTGTGTAA,0.3 kcal/mol
12,TTGTTCACGTGCATTG,0.19 kcal/mol
13,CGGGGCACGTGGGTGT,-0.18 kcal/mol
14,GGTTACACGTGGTGGT,0.09 kcal/mol
15,GTGGTCACGTGTATCT,0.02 kcal/mol
16,TTTTACACGTGAAAGT,0.38 kcal/mol
17,TTATTCACGTGTTAAC,0.2 kcal/mol
18,TTTTGCACGTGTAGGG,-0.02 kcal/mol
19,GTTAGCACGTGAGGTT,0.18 kcal/mol
20,TATGCCACGTGTTTGT,-0.11 kcal/mol
21,TTTATCACGTGGTTGC,0.16 kcal/mol
22,ATGGTCACGTGACAGT,0.11 kcal/mol
23,TAGGTCACGTGGGTCT,-0.13 kcal/mol
24,CTGTGCACGTGTGTCT,0.01 kcal/mol
25,TGTGTCACGTGGATGG,-0.01 kcal/mol

row,Sequence,relative binding free energy
1,CAAAACACGTGGGGGG,-0.08 kcal/mol
2,CAAGGCACGTGGTGAT,-0.13 kcal/mol
3,GGCGTCACGTGGGCGA,0.09 kcal/mol
4,ATGCGCACGTGAGGGT,0.1 kcal/mol
5,AATCTCACGTGGTATT,0.15 kcal/mol
6,GGGGGCACGTGGGGTG,-0.16 kcal/mol
7,TTGATCACGTGTTGGC,0.13 kcal/mol
8,GGATGCACGTGTATAT,0.11 kcal/mol
9,GTGAACACGTGGTCGT,-0.01 kcal/mol
10,GGAATCACGTGTTTGA,0.19 kcal/mol
11,GTGTACACGTGGCGTA,-0.04 kcal/mol
12,TTGTACACGTGGGGTG,0 kcal/mol
13,TGGGTCACGTGTTTCT,0.25 kcal/mol
14,TATGACACGTGGGGCG,-0.12 kcal/mol
15,GTTCTCACGTGGGTTA,0.08 kcal/mol
16,TTAGGCACGTGGGGGA,-0.17 kcal/mol
17,GAGGGCACGTGGCGGC,-0.27 kcal/mol
18,TTAGTCACGTGTCGGC,0.1 kcal/mol
19,TTGAGCACGTGGGTCC,-0.22 kcal/mol
20,GGATACACGTGTGGGG,0.22 kcal/mol
21,ATGTACACGTGTTTGG,0.01 kcal/mol
22,TTCCTCACGTGTGTTG,0.09 kcal/mol
23,AGGCTCACGTGGTGTG,0.13 kcal/mol
24,GCGTACACGTGGGTTG,-0.12 kcal/mol
25,GATAGCACGTGTATTG,-0.09 kcal/mol

row,Sequence,relative binding free energy
1,AAATGCACGTGGGATG,-0.07 kcal/mol
2,AGGAACACGTGTTAGT,-0.06 kcal/mol
3,GTCGTCACGTGTTGCG,0.19 kcal/mol
4,TTAATCACGTGAATGG,0.3 kcal/mol
5,TTCGACACGTGGATTT,0.14 kcal/mol
6,AGGTTCACGTGAGGTC,0.28 kcal/mol
7,TTTAGCACGTGGTGAA,-0.18 kcal/mol
8,GTAGCCACGTGTTGTA,-0.05 kcal/mol
9,TCGAGCACGTGAGGTT,0.24 kcal/mol
10,TACGGCACGTGGGCGG,-0.25 kcal/mol
11,TGCGCCACGTGGGTGA,-0.3 kcal/mol
12,GTCTACACGTGGTCTG,0.15 kcal/mol
13,GATGTCACGTGACTGT,0.29 kcal/mol
14,ATACGCACGTGTTTGA,-0.16 kcal/mol
15,TCGTGCACGTGTCGTT,-0.04 kcal/mol
16,GGTGGCACGTGGCCTT,-0.07 kcal/mol
17,ATGGTCACGTGTTGTG,0.13 kcal/mol
18,CATATCACGTGGATGT,0.1 kcal/mol
19,AAATCCACGTGGGGGT,-0.22 kcal/mol
20,TTGTCCACGTGTTTTA,0.14 kcal/mol
21,GGTAGCACGTGGATTT,0.12 kcal/mol
